Measured values taken from PubChem BioAssay AID504706 (National Center for Advancing Translational Sciences (NCATS), 2011).
About 200 (0.062%) of roughly 320,000 compounds were called active. The inconclusive results got no clear call from the source; some entries with a clear call stand among them for comparison. Calls come from the whole dose curve; as a rule, active = well fitted activation curve with a large enough effect; inconclusive = small, poorly fitted or top-dose-only effect; inactive = no such curve, though single readings can be large or run the other way. No potency is given beside an inconclusive call; the fits are too rough.

experiment: qHTS assay for re-activators of p53 using a Luc reporter; details: H1299 p53-A138V BP100-luciferase reporter, luminescence, 24 h; series mostly up to 92.2 µM; note: nearly all actives have a fitted effect of over 45% in size
In short: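 H1299 (p53-null), stable ts p53-A138V + BP100-Luc; 1000 cells/well, Opti-MEM/10% FBS; cpd 4 pt, 1:5; 24 h, 37 deg C, 5% CO2; detection reagent 10 min RT; luminescence.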
Potency is the fitted concentration of half-maximal effect; tags give direction and shape of the fitted curve.

Row | SMILES | Potency
1 | O=C(NN1CCCCC1)c1cccc(COc2ccc(Cl)cc2)c1 | inconclusive [activator, partial curve, poor fit]
2 | NC(=O)c1ccccc1N/C=C/C(=O)c1ccc(Cl)cc1 | inactive
3 | CN(C)c1ccc(NC(=O)CN2CCc3ccccc3C2)cc1 | inconclusive [activator, partial curve, poor fit]
4 | Cc1ccc(OCCN2C(=O)c3ccccc3C2=O)c([N+](=O)[O-])c1 | inconclusive [activator, partial curve, poor fit]
5 | COc1ccc2nc(SC(C)C(=O)NC3CCCC3)[nH]c2c1 (stereo not drawn) | inactive
6 | COCCN(Cc1ccccc1)C(=S)Nc1ccc(OC(F)F)cc1 | inactive
7 | c1ccc2c(c1)oc1c(Nc3ccc(CN4CCOCC4)cc3)ncnc12 | inconclusive [activator, full curve, poor fit]
8 | Cc1oc(-c2ccccc2)nc1C(=O)Nc1nccs1 | inconclusive [activator, full curve, poor fit]
9 | Cc1ccc(S(=O)(=O)ON2C(=O)c3ccccc3C2=O)c(C)c1 | inconclusive [activator, partial curve, poor fit]
10 | CC(=O)Nc1ccc(S(=O)(=O)N(C)c2ccc(OCC(=O)Nc3ccccc3C(C)=O)cc2)cc1 | inactive
11 | N#Cc1ccsc1NC(=O)c1ccccn1 | inconclusive [activator, single point]
12 | O=C(O)/C=C/C(=O)Nc1ccccc1C(=O)Nc1ccccc1 | inconclusive [activator, single point]
13 | CC(C)(C)c1ccc(CN2N=Nc3ccccc3S2(=O)=O)cc1 | inconclusive [activator, partial curve, poor fit]
14 | CCC(C)NC(=O)C1CC(c2ccc(OC)cc2)=NO1 (stereo not drawn) | inconclusive [activator, full curve, poor fit]
15 | Cc1ccc(C)n1-c1ccc(C(=O)N2CCOCC2)cc1 | inconclusive [activator, partial curve, poor fit]
16 | COc1ccccc1N(C)S(=O)(=O)c1ccc(Cl)c(C(=O)NCCCN2CCOCC2)c1 | inconclusive [activator, single point]
17 | [O-]/[N+](=C\C=C\c1ccccc1)c1ccccc1 | inconclusive [activator, full curve, poor fit]
18 | COc1ccc2oc(C(=O)c3ccccc3)c(N)c2c1 | inconclusive [activator, partial curve, poor fit]
19 | CC(CS(=O)(=O)c1cccc2cccnc12)N1CCCCC1 (stereo not drawn) | inconclusive [activator, partial curve, poor fit]
20 | Cc1ccc2c(c1)N(CC(=O)Nc1ccccc1F)C(=O)CO2 | inconclusive [activator, single point]
21 | CC(=O)c1ccc(N2CCN(C(=O)C3CCN(S(=O)(=O)Cc4ccccc4)CC3)CC2)cc1 | inconclusive [activator, single point]
22 | CCNS(=O)(=O)c1cc(-c2nnc(OC)c3ccccc23)ccc1C | inconclusive [activator, single point]
23 | O=C(NC1CCCCC1)c1ccc(CNc2nc(=S)[nH]c3ccccc23)cc1 | inconclusive [activator, full curve, poor fit]

Row | SMILES | Potency
24 | Cc1nn(Cc2c(F)c(F)c(F)c(F)c2F)c(C)c1NC(=O)c1nn(C)c(C)c1Br | inactive
25 | Oc1ccc(Cl)cc1-c1cc(-c2cccc(Br)c2)n[nH]1 | inactive
26 | Oc1ccc(Br)cc1C=Nc1cccn2cc(-c3ccccc3)nc12 | inconclusive [activator, partial curve, poor fit]
27 | CN(CC(=O)Nc1cccc(F)c1)C(=O)C1CC(=O)N(CCc2ccccc2)C1 (stereo not drawn) | inconclusive [activator, partial curve, poor fit]
28 | c1ccn2c(SCc3ccc4c(c3)OCCO4)nnc2c1 | inconclusive [activator, single point]
29 | CC(=O)c1ccc(NC(=O)CCc2nnc3ccc(NCc4ccco4)nn23)cc1 | inconclusive [activator, partial curve, poor fit]
30 | Cc1cc(OCC(=O)Nc2ccncc2)c(C)cc1Br | inactive
31 | CC1(C)Cc2cccc(OCC(=O)NCc3cccs3)c2O1 | inactive
32 | COc1cc(CNCc2ccccn2)ccc1OCc1ccc(Cl)cc1 | inconclusive [activator, full curve, poor fit]
33 | CCC(=O)OC1(C(=O)CCl)[C@@H](C)C[C@H]2[C@@H]3CCC4=CC(=O)C=C[C@]4(C)[C@@]3(F)[C@@H](O)C[C@@]21C (stereo partly drawn) | inactive
34 | Cc1ccc(NC(=O)c2ccc(S(=O)(=O)NCc3cccnc3)cc2)cc1C | inactive
35 | O=C(/C=C/c1ccccc1[N+](=O)[O-])Nc1cccnc1 | inconclusive [activator, partial curve, poor fit]
36 | Cn1c(CCc2ccccc2)n[nH]c1=S | inactive
37 | Cc1nn2c(c1-c1ccccc1)NC1=C(C(=O)CCC1)C2c1ccccc1 (stereo not drawn) | inactive
38 | Cc1ccc(S(=O)(=O)CCC(=O)N(CCN2CCOCC2)c2nc3ccccc3s2)cc1 | inconclusive [activator, partial curve, poor fit]
39 | CC(=O)c1cccc(S(=O)(=O)NCC(C)(C)N2CCOCC2)c1 | inconclusive [activator, single point]
40 | CCS(=O)(=O)n1nc(-c2ccc(Cl)cc2)nc1SCc1ccccc1 | inconclusive [activator, partial curve, poor fit]
41 | Cc1ccc(C(=O)C(C)OC(=O)c2ccccc2[N+](=O)[O-])cc1 (stereo not drawn) | inconclusive [activator, partial curve, poor fit]
42 | O=C(CCCN1C(=O)/C(=C/c2ccco2)SC1=S)Nc1ccccc1C(=O)O | inconclusive [activator, partial curve, poor fit]
43 | N/C(=N\OC(=O)c1cccc(Cn2cc(C(F)(F)F)ccc2=O)c1)c1ccccc1 | inactive
44 | O=C(COC(=O)c1ccccn1)Nc1ccc2c(c1)OCCO2 | inactive
45 | Cc1cn(CCC(=O)Nc2ccccc2N2CCOCC2)c2ccccc12 | inactive
46 | O=C(Nc1ccc(Cl)cc1)c1ccc2nsnc2c1 | inconclusive [activator, partial curve, poor fit]

Row | SMILES | Potency
47 | CCOc1cccc(NCc2cc3c(C(C)(C)C)nn(-c4ccccc4)c3[nH]c2=O)c1 | inactive
48 | Cn1cc(Br)c(C(=O)N/N=C/c2cccc(OC3CSC3)c2)n1 | inconclusive [activator, partial curve, poor fit]
49 | Nc1ccc(SCCN2C(=O)c3ccccc3C2=O)cc1 | inconclusive [activator, full curve, poor fit]
50 | S=C(Nc1ccc2nsnc2c1)NC1CCCCC1 | inconclusive [activator, single point]
51 | COC(=O)Cn1ncc2c3ccccc3n(C)c2c1=O | inconclusive [activator, single point]
52 | c1ccc(SCc2nc(-c3cccnc3)no2)cc1 | inconclusive [activator, partial curve, poor fit]
53 | CCN(CC)S(=O)(=O)c1cc(C(=O)Nc2ccc(Cl)cn2)ccc1C | inconclusive [activator, partial curve, poor fit]
54 | COc1cc(/C=C/C(=O)N2C(=O)c3cccc(N)c3C2=O)cc(OC)c1OC | inconclusive [activator, partial curve, poor fit]
55 | Cc1nn(CCC(=O)NNC(=S)Nc2ccc([N+](=O)[O-])cc2)c(C)c1[N+](=O)[O-] | inactive
56 | CCOC(=O)N/N=C/c1c(C)nn(-c2ccccc2Cl)c1Cl | inconclusive [activator, partial curve, poor fit]
57 | O=C(CSc1ccccc1C(=O)O)NCc1ccc(Cl)cc1 | inconclusive [activator, single point]
58 | O=C1Nc2ccccc2/C1=N/c1sc2c(c1C(=O)NCCc1ccccc1)CCCC2 | inconclusive [activator, partial curve]
59 | COC(=O)c1sc2ccccc2c1-n1cccc1C(=O)C(=O)Nc1ccc(F)cc1 | inactive
60 | O=C(c1ccco1)N1CCN(c2ncnc3c2oc2ccccc23)CC1 | inactive
61 | Cc1c(C(=O)N/N=C/c2ccccc2)[nH]c2ccc(Cl)cc12 | inconclusive [activator, full curve, poor fit]
62 | O=C(c1ccc2ccccc2c1)N1CCN(S(=O)(=O)/C=C/c2ccccc2)CC1 | inconclusive [activator, single point]
63 | CCOC(=O)C1CCCN(Cc2cccc(Cl)c2)C1 (stereo not drawn) | inconclusive [activator, partial curve, poor fit]
64 | Cc1cc(C)n(-c2nnc(NCc3ccc(Cl)cc3)nn2)n1 | inactive
65 | COc1ccc(-c2ccc(-c3noc(-c4cccs4)n3)c(OC)n2)cc1 | inactive
66 | C=CCn1c(SC(C)C(=O)NCc2ccc3c(c2)OCO3)nnc1C1CCCCC1 (stereo not drawn) | inactive
67 | CCCCOC(=O)c1ccc(NC(=O)C2CCCO2)cc1 (stereo not drawn) | inconclusive [activator, partial curve, poor fit]
68 | Cc1cc(-c2nnc(SCc3cccnc3)o2)no1 | inconclusive [activator, single point]
